Among the data in PubChem BioAssay AID488969 (Vanderbilt High Throughput Screening Facility, 2010) are z-score values, retold here.

Over roughly 110,000 compounds, “z-score” has its median near -0.1; the highest 2% begin near 2. This is one part of the list. The source made the active and inactive calls.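 How the source made its calls: active means z-score in the third read window above 3 or below -3; inactive means the rest.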

In this experiment the target is Metabotropic glutamate receptor 8 (Rattus norvegicus) (UniProt P70579). As to the kind of experiment: mGluR8 Gi/Go-coupled signaling modulation – cell-based, rat, thallium flux, HTS, primary screen (AID 488969). The settings on record: HEK293 rat mGluR8, GIRK (G protein-gated inwardly rectifying potassium channel) thallium flux, FluoZin2; at 10 µM; stronger effect = higher value; submaximal glutamate (EC20) added with thallium.
UniProt P70579, sequence (P70579 whole entry, looked up): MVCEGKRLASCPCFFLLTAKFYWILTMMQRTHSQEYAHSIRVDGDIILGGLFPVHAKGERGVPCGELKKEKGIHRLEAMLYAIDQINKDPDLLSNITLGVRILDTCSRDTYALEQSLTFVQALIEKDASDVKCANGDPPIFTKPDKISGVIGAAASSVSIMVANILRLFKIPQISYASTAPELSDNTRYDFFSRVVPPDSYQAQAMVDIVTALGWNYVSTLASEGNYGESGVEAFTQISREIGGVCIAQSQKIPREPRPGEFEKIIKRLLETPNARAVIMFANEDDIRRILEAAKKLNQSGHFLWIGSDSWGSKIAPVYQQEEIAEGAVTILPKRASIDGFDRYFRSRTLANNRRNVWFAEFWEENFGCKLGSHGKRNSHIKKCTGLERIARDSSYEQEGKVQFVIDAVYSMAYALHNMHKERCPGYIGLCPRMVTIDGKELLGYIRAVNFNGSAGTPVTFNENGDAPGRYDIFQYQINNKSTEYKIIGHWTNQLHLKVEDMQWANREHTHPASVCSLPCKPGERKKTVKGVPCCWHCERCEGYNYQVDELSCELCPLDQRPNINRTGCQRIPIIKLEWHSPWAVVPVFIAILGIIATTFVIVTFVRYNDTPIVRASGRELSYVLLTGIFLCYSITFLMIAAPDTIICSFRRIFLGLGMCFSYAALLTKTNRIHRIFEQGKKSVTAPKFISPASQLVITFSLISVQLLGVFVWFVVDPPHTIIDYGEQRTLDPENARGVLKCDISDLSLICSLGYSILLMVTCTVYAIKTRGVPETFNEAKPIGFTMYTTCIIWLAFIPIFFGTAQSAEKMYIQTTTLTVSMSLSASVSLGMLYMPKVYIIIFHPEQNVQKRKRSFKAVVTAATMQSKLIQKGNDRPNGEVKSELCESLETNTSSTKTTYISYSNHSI
The compound `COc1ccccc1-c1coc2cc(OC(=O)/C=C/c3ccccc3)ccc2c1=O` came in with a z-score of 0.68.
Consider `COc1cc(/C=N/n2c(C)n[nH]c2=S)ccc1OCc1ccc(F)cc1`, for which the z-score was 0.484.
The figure for `C=CCn1c(SCc2nc3ccccc3[nH]2)nnc1-c1ccccn1` is -0.0849; for `C/C(=C\c1ccco1)C1Nc2cccc3cccc(c23)N1` it is -1.15; for `Cc1ccc(Cn2ccc(NC(=O)c3c(-c4ccccc4Cl)noc3C)n2)cc1` it is -0.614.
The compound `COC(=O)C(C)N(C(=O)c1ccc(C(=O)c2ccccc2)cc1)c1c(C)cccc1C` (centres undefined) displayed a z-score of -0.568.
As for `Cc1ccc(-c2ccc(/C=C3\C(=O)ON=C3c3ccccc3)o2)c([N+](=O)[O-])c1`, the z-score turned out to be 0.0567.
As to `COc1ccc(S(=O)(=O)N(C)CC(=O)N2CCN(C)CC2)cc1C`, the z-score worked out at 0.16.
The figure for `COc1ccc(NC(=O)Nc2ccc(C)cc2OC(F)F)cc1OC` is -0.0436; for `S=C(Nc1ccc(Cl)cc1)NN1CCOCC1` it is 0.0745.
In turn, `O=C(NCc1ccc(F)cc1)C1CC(=O)N(CCc2ccccc2)C1` (centres undefined) showed a z-score of 0.722.
Compound `Cc1cccc(OCC(=O)Nc2nc3ccc([N+](=O)[O-])cc3s2)c1` returned a z-score of 2.05.
Turning to `CC(=O)Nc1ccc2c(c1)nc(CCN1CCC(C)CC1)n2C`, the z-score is 0.591.
To `CCOC(=O)N1CCN(C(=O)CN(c2ccc(Oc3ccccc3)cc2)S(C)(=O)=O)CC1` belongs 0.55.
`CCOC(=O)Nc1nc(-c2ccccc2)c(C(=O)c2ccccc2)s1`: the z-score was -0.809.
`C/C(=N\N=C(/N)SC1CC(=O)N(c2ccc(Br)cc2)C1=O)c1cccs1` (centres undefined) came in with a z-score of 0.0622.
Regarding `COc1ccccc1/C=C/C=N/n1c(-c2cc(C)[nH]n2)n[nH]c1=S`, the z-score was found to be 0.0768.
As for `CCC(C(=O)Nc1ccccc1-c1ccccc1)c1ccccc1` (centres undefined), the z-score is -0.816.
The figure for `O=C(NCc1ccccc1)C1CCCN1S(=O)(=O)c1cccc2cccnc12` (centres undefined) is -0.431; for `Cn1c(O)c(N=NC(=O)c2cccc(S(=O)(=O)N3CCCCC3)c2)c2ccccc21` it is -0.947.
To `CCCOc1ccc(N2C(=O)CC(N3CCN(c4nc5ccccc5s4)CC3)C2=O)cc1` (centres undefined) belongs 0.835; to `O=C(CSc1ncc(-c2ccc(F)cc2)[nH]1)N1CCCCC1`, -0.122; to `O=c1oc(-c2ccccc2Cl)nc2ccsc12`, -2.52.
To `COc1cccc(NC(=O)c2ccc(-n3cccn3)nc2)c1` belongs 0.109.
In turn, `COc1cc2nc(SCc3ccc(Cl)cc3Cl)n(Cc3cccs3)c(=N)c2cc1OC` gave a z-score of -0.0369.
For `COc1ccc(S(=O)(=O)N(CC(N)=O)C2CCCCC2)cc1Cl`, the z-score was -0.0291.
`CCc1ccc(-c2nn(-c3ccccc3)cc2CSC(=N)N)cc1`: the z-score came to 0.64.
Regarding `Fc1ccc(NC(=S)NCCc2ccccc2)c(F)c1F`, the z-score is 2.71.
On to `Cc1ccc(C2C(C(N)=S)=C(N)OC3=C2C(=O)CC(C)(C)C3)cc1` (centres undefined), for which the z-score was -0.111.
`CCN1CCN(C(=O)CN(CC)S(=O)(=O)c2ccc(Cl)cc2)CC1` registered a z-score of 0.354.
The figure for `C(=N\n1cnnc1)/c1ccc(N2CCOCC2)cc1` is 0.265; for `CCCC(=O)N1CCN(c2ccc(NC(=O)c3cc4ccccc4o3)cc2Cl)CC1` it is 0.0823.
The figure for `COc1ccc(Cn2nnnc2C(c2ccccc2Cl)N2CCC(C(N)=O)CC2)cc1` (centres undefined) is -0.197; for `CCOc1ccccc1NC(=O)Nc1cc(OC)ccc1OC` it is -0.67.
The compound `Cc1ccccc1C(=O)O/N=C/c1c(N2CCOCC2)n(C)c2ccccc12` displayed a z-score of -0.339.
`COC(=O)C1=C(C)N(CCc2ccc(OC)c(OC)c2)C(=O)C1`: the z-score is -0.0996.
`CCOC(=O)CN(C(=O)CNC(=O)c1ccco1)C(C(=O)NC1CCCCC1)c1cccs1` (centres undefined) came in with a z-score of 0.241.
`CN(C)c1ccc(-c2noc(C3CCN(S(=O)(=O)c4cccc(C(=O)O)c4)CC3)n2)cc1` returned a z-score of -0.634.
Compound `COC(=O)c1cc(OC)c(OC)cc1NC(=O)c1oc2ccccc2c1C` displayed a z-score of -0.441.
Compound `COc1ccc(NC(C)=O)cc1NC(=O)CSc1nnc(-c2ccncc2)n1C` came in with a z-score of -0.169.
To `CCCOc1ccc(CSc2nc3ccccc3[nH]2)cc1` belongs 1.22; to `Cc1c(C)c2ccc(Oc3ccc([N+](=O)[O-])cc3C(F)(F)F)c(C)c2oc1=O`, 0.074.
Compound `CC(=O)c1cccc(NC(=S)NC(=O)c2ccccc2Cl)c1` registered a z-score of 1.17.
Compound `COc1cc(NC(=O)CCC2CCCC2)cc(-n2cnnn2)c1` returned a z-score of -0.326.
Compound `COc1cc(C)ccc1OCCOCCOc1ccccc1Br` registered a z-score of 0.165.
To `C=CCNC(=O)c1ccc(Sc2ccc(C)cc2)c([N+](=O)[O-])c1` belongs 0.15.
On to `Clc1ccc(OCCCCCN2CCCC2)c(Br)c1`, for which the z-score turned out to be 1.1.
With `O=C1c2ccccc2CN1CCNS(=O)(=O)c1ccc(Cl)cc1`, the z-score is -0.0894.
As for `c1ccc2sc(N3CCOCC3)nc2c1`, the z-score came out at 0.0591.
`CCc1ccc2[nH]c(=O)c(CN(Cc3ccccc3)C(=O)Nc3ccccc3OC)cc2c1` showed a z-score of 0.0431.
The compound `CC(C)CNC(=O)NC(=O)COc1ncnc2sccc12` registered a z-score of -0.218.
In turn, `O=C(C[n+]1ccc(-c2nnc3n2CCC3)cc1)c1ccc(Cl)c(Cl)c1` came in with a z-score of -0.0551.
The figure for `O=C(N/N=C/c1ccccc1O)/C(=C/c1ccccc1)CCO` is -0.0583.
Compound `CCc1cc(C(c2ccccc2OC)N2CCOCC2)c(NC(=O)c2ccccc2)s1` (centres undefined) came in with a z-score of -0.807.
On to `O=C(CCN1CCCCC1)NCC1OCCc2ccccc21` (centres undefined), for which the z-score was -0.0974.
The figure for `O=C(CC1(O)C(=O)N(Cc2ccccc2Cl)c2ccccc21)c1ccco1` (centres undefined) is -0.492; for `Nc1ccc(C#Cc2ccccc2)cc1` it is 0.0818; for `Cc1cc(Cl)ccc1NC(=O)NC1CCN(S(=O)(=O)c2ccc(F)cc2)CC1` it is 0.136.
As for `CCOC(=O)c1ccccc1NC(=O)CN(c1ccccc1C)S(C)(=O)=O`, the z-score was -0.397.
The figure for `CC1(C)Cc2c(C#N)c(OCC(=O)c3ccc(Cl)cc3)nc(-c3ccco3)c2CO1` is -0.109; for `CSC1=N/C(=C\c2ccc(Br)o2)C(=O)S1` it is active: 3.73.
For the compound `COc1ccc(C2(C(=O)Nc3ccccc3)CCOCC2)cc1`, the z-score is -0.179.
In turn, `CCCCCCC/C(C)=N/NC(=O)CC(=O)NCCc1ccccc1` gave a z-score of -0.0928.
`COc1ccc(C)cc1NC(=O)NC1CCN(Cc2ccccc2)CC1` came in with a z-score of 0.267.
`Cc1[nH]nc2c1C(c1cccc(OC(=O)N3CCOCC3)c1)C(C#N)=C(N)O2` (centres undefined) yielded a z-score of -0.263.
Consider `CCCCNCCOc1ccccc1-c1ccccc1`, for which the z-score stood at 0.263.
For the compound `CCCOc1ccc(C2C(C(=O)c3ccc(C)o3)=C(O)C(=O)N2CCN2CCOCC2)cc1OC` (centres undefined), the z-score is -0.474.
Regarding `Cc1cc(SCc2cc(=O)n3ccsc3n2)nc2ccccc12`, the z-score was -0.273.
The figure for `CCN(Cc1ccccc1)c1ccc(/C=N/NC(=S)NC(C)C)cc1` is 0.197; for `CCOc1ccc(CN2C(=O)c3ccccc3C2C(=O)NCc2cccnc2)cc1` (centres undefined) it is -0.086; for `COc1cc2c(cc1NC(=O)c1ccco1)CCCC2` it is -0.397.
`O=C(Nc1nc2c(s1)CCCC2)c1cccc(S(=O)(=O)N2CCCc3ccccc32)c1` displayed a z-score of -0.0686.
As to `O=C(CS(=O)(=O)c1cn(Cc2ccc(F)cc2)c2ccccc12)N1CCCCC1`, the z-score is -0.178.
`O=C(CSCc1ccccc1)N/N=C/c1cc2c(cc1Br)OCO2`: the z-score is -0.2.
The compound `O=C(CN1C(=O)c2cccc3cccc1c23)Nc1ccc(S(=O)(=O)N2CCOCC2)cc1` came in with a z-score of -0.376.
Consider `CCCc1cc(=O)[nH]c(-n2[nH]c3c(c2=O)CCCC3)n1`, for which the z-score is -0.412.
In turn, `O=S(=O)(/N=C(/c1ccc(Cl)cc1)N1CCOCC1)c1ccc(Cl)cc1` had a z-score of -0.196.
To `O=C(NCCOc1ccccc1)c1n[nH]c(=O)c2ccccc12` belongs -0.471.
To `O=C1C(=O)N(Cc2cccnc2)C(c2ccccn2)/C1=C(/O)c1ccc(F)cc1` (centres undefined) belongs -0.0829; to `CC(CN1CCCCC1)OC(=O)c1ccc2c(c1)OCO2` (centres undefined), 1.49.
Compound `COc1cccc(OC)c1OCCCOc1ccc([N+](=O)[O-])cc1Cl` gave a z-score of -0.353.
To `COC(=O)c1nc(NC(=O)c2ccccc2Cl)n[nH]1` belongs 0.32; to `CC1CC(=O)C2=C(C1)Nc1ccccc1N=C2` (centres undefined), 0.512; to `COC(=O)C1=C(C)NC2=C(C(=O)CC(c3cccs3)C2)C1c1ccsc1` (centres undefined), -0.448.
To `COC(=O)c1ccc(OC(=O)C2CC(=O)N(c3ccc(C)cc3C)C2)cc1` (centres undefined) belongs -0.403; to `C=CCN1C(=O)c2oc3ccccc3c(=O)c2C1c1ccc(O)c(OC)c1` (centres undefined), -0.251; to `COc1cc(NS(=O)(=O)c2ccc(N/C=C\C(=O)c3ccc(F)cc3)cc2)nc(OC)n1`, 0.107.
Turning to `Cc1ccc(Nc2nc(CSc3nnc(-c4cccnc4)n3-c3ccccc3C)cs2)cc1`, the z-score was -0.962.
`C#CCn1c(S(=O)(=O)Cc2ccc(OC)cc2)nc(-c2ccccc2)c1-c1ccccc1` returned a z-score of -0.243.
In turn, `COc1cc(C(C(=O)NC2CCCCC2)N(Cc2cccs2)C(=O)Cc2c[nH]c3ccccc23)cc(OC)c1OC` (centres undefined) showed a z-score of -0.263.
Compound `O=C(COc1ccccc1O)N1CCN(C(=O)c2ccco2)CC1` registered a z-score of -1.24.
In the case of `CC(C)CNC(=S)Nc1ccc(Oc2ccccc2)cc1`, the z-score came out at 2.69.
`CCOC(=O)Cc1nn2c(=O)cc(C)nc2s1` registered a z-score of -0.16.
To `CN1CCN(CC(=O)N2c3ccccc3C(C)(c3ccc(Cl)cc3)CC2(C)C)CC1` (centres undefined) belongs active: 3.21.
`S=C(c1cn(CCOc2ccccc2)c2ccccc12)N1CCCC1` registered a z-score of 0.0222.
For `CCCn1c(SCC(=O)NCCc2ccccc2)nnc1-c1ccco1`, the z-score is -0.175.
The compound `CCc1ccc(Nc2nc3ccccc3c(=O)s2)cc1` came in with a z-score of 2.82.
Compound `Cc1ccc(-n2ncc3c(=O)n(CC(=O)NC4CCCCC4)cnc32)cc1` came in with a z-score of 0.35.
`COc1ccc2oc(-c3cccc(NC(=O)CSc4ccc(Cl)cc4)c3)nc2c1` displayed a z-score of -0.12.
Turning to `CCCN1C(=O)/C(=N\OCC(=O)Nc2ccc(C(C)C)cc2)c2ccccc21`, the z-score is -0.00981.
To `O=C1N2CCSC2=NC1(Nc1ccccn1)C(F)(F)F` (centres undefined) belongs 0.113.
The figure for `Cc1nnc(SCCn2c(N(C)Cc3ccccc3)nc3c2c(=O)[nH]c(=O)n3C)s1` is -0.534; for `O=C(O)C1CCCN1c1ncnc2ccccc12` (centres undefined) it is 0.93; for `O=C(NCc1cccs1)C1CCCN(S(=O)(=O)c2cnc[nH]2)C1` (centres undefined) it is 0.111.
The figure for `COc1ccc(S(=O)(=O)N(CC(=O)NCc2ccco2)c2ccccc2)cc1` is -0.522; for `COc1ccc(C(NC(=O)c2c(F)c(F)c(F)c(F)c2F)c2ccccc2)cc1` (centres undefined) it is -0.423; for `CCCOc1ccc(/C=N/Nc2ccccc2[N+](=O)[O-])c(OCCC)c1` it is 0.276.
In the case of `Cc1[nH]c2ccccc2c1C1=NNC(=Nc2ccc(F)cc2)SC1`, the z-score came to 0.418.
As for `CC(C)(Nc1ccccc1)C(=O)c1ccccc1`, the z-score was 0.0928.
